In PubChem BioAssay AID504332 (National Center for Advancing Translational Sciences (NCATS), 2011):
The whole screen tested about 350,000 compounds, of which about 31,000 (8.9%) were called active. The inconclusive results got no clear call from the source; some entries with a clear call stand among them for comparison. Calls come from the whole dose curve; as a rule, active = well fitted inhibition curve with a large enough effect; inconclusive = small, poorly fitted or top-dose-only effect; inactive = no such curve, though single readings can be large or run the other way. Potencies of inconclusive entries are doubtful fits and often do not repeat.

biological target: Histone-lysine N-methyltransferase EHMT2 (Homo sapiens) (UniProt Q96KQ7); assay: qHTS Assay for Inhibitors of Histone Lysine Methyltransferase G9a; conditions: G9a H3K9 monomethylation, AlphaScreen, 2 h; activity, negative = inhibition: at 59 µM (top of the series) unless noted; note: nearly all actives have a fitted effect of over 75% in size
Sequence of UniProt Q96KQ7 (Q96KQ7 whole entry, looked up): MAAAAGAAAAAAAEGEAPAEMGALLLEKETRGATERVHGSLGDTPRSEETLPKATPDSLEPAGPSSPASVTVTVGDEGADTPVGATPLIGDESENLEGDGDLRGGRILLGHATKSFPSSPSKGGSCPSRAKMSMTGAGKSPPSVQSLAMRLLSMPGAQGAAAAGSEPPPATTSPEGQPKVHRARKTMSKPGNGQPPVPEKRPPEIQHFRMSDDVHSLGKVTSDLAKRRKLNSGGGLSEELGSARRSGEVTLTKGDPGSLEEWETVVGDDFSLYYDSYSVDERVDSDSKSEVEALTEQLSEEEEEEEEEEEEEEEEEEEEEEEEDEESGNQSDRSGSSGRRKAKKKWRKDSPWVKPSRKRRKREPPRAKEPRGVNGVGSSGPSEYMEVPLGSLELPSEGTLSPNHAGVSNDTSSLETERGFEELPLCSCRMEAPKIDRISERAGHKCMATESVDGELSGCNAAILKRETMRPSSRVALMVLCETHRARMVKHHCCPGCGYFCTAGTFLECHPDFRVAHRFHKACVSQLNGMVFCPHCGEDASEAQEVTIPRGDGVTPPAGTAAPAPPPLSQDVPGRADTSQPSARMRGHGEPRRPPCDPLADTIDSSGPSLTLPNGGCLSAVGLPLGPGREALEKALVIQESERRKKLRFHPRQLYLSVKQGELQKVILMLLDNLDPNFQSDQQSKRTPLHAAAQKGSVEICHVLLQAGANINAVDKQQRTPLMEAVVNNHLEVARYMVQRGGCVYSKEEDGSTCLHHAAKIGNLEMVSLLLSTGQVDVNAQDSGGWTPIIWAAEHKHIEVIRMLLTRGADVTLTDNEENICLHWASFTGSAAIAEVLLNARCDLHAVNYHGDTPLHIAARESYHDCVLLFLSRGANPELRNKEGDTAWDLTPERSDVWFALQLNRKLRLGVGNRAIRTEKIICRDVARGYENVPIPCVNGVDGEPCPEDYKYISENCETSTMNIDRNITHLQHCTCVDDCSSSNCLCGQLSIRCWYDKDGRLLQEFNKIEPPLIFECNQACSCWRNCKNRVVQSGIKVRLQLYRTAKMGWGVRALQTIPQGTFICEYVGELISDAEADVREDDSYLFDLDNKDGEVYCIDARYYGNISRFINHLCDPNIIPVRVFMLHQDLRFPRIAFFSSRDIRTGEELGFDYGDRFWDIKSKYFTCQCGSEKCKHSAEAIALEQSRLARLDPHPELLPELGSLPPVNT
In short: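 AlphaScreen read-out: biotin-H3K9 peptide (500 nM) methylation by 20 nM enzyme with 20 uM SAM, 2 h at room temperature after 15 min compound preincubation; anti-monomethyl H3K9 antibody plus donor/acceptor beads, 10 min dark.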
% is set by controls: 0 for no effect and ±100 for the full control effect; potency is the fitted concentration of half-maximal effect; tags give direction and shape of the fitted curve.

Row | SMILES | Potency | activity, negative = inhibition
1 | COc1ccc2oc(=O)c(C(=O)OCC(=O)c3ccc([N+](=O)[O-])cc3)cc2c1 | inconclusive: 89.1 µM [inhibitor, single point] | 
2 | C/C(=N\Nc1nc(C)c(C)s1)c1ccc([N+](=O)[O-])cc1 | active: 17.8 µM | 
3 | Cc1ccc(C(=O)COC(=O)CCC(=O)NC2CCCCC2)cc1[N+](=O)[O-] | inconclusive: 89.1 µM [inhibitor, partial curve, poor fit] | 
4 | CC(C)C(NC(=O)CSCc1ccc([N+](=O)[O-])cc1)C(C)C | inconclusive: 5.62 µM [inhibitor, partial curve, poor fit] | 
5 | CC1(C)Oc2ccc3ccc(=O)oc3c2C(N2CCCCC2)C1O (stereo not drawn) | inconclusive: 3.16 µM [inhibitor, partial curve, poor fit] | 
6 | Cc1cnc(C(=O)OCC(=O)c2cccc3ccccc23)cn1 | active: 44.7 µM | 
7 | C[C@@H](C(=O)NC1CCCC1)N1C(=O)N2CCc3c([nH]c4ccccc34)[C@@]2(C)C1=O |  | inactive: 17.7% [at 12.7 µM]
8 | CCC(C)OC(=O)c1cc(C)nc2c(Br)cc(Br)cc12 (stereo not drawn) | inconclusive: 39.8 µM [inhibitor, single point] | 
9 | O=C(NCC(c1cccnc1)N1CCc2ccccc21)c1ccc(F)cc1 (stereo not drawn) | inactive | 
10 | CCn1cc(C(=O)NCCOC)c(=O)c2ccc(C)nc21 | inconclusive: 1.26 µM [inhibitor, full curve, poor fit] | 
11 | CCCCn1c(SCC(=O)NCc2ccco2)nnc1-c1ccco1 | inconclusive: 14.1 µM [inhibitor, partial curve, poor fit] | 
12 | Fc1ccc(OCCCn2ccnc2)cc1 | active: 39.8 µM | 
13 | COC(=O)c1ccccc1-n1c(CCC(=O)O)ccc1-c1ccc(F)cc1 | inconclusive: 89.1 µM [inhibitor, single point] | 
14 | Cc1nn(-c2ccccc2)c(Cl)c1/C=N/Nc1nc2ccccc2n1C | active: 50.1 µM | 
15 | N#Cc1ccc(C23CC4(C2)[C@H](CN(Cc2ccc(C(F)(F)F)cc2)[C@@H]4c2ccccc2)C3c2ccc(C(F)(F)F)cc2)cc1 (stereo partly drawn) | inconclusive: 3.55 µM [inhibitor, single point] | 
16 | CCn1cnc2cc(NS(=O)(=O)c3ccc(C)cc3)ccc21 | inactive | 
17 | CCc1ccc(S(=O)(=O)N(C(=O)c2ccncc2)c2ccc(OC(=O)c3ccncc3)cc2)cc1 | inconclusive: 31.6 µM [inhibitor, single point] | 
18 | N#CCC(=O)N/N=C\c1ccccc1OC/C=C/c1ccccc1 | inactive | 
19 | Cc1ccc2c(c1)C1CN(C)CCC1N2CC(=O)N(C)c1ccccc1 (stereo not drawn) | inconclusive: 22.4 µM [inhibitor, single point] | 
20 | O=C(CSCC(=O)NCc1ccco1)NCc1ccco1 | inconclusive: 0.112 µM [inhibitor, full curve, poor fit] | 
21 | COc1ccc(Cc2nnc(NN)[nH]c2=O)cc1OC | inactive | 
22 | CCN1CCN(C(c2ccc(OC)c(OC)c2)c2nnnn2C(C)(C)C)CC1 (stereo not drawn) |  | inactive: -13.2% [at 12.7 µM]
23 | O=C(C[n+]1ccn(CCCNP2(=O)C=C(c3ccccc3)OC(c3ccccc3)=C2)c1)c1cccs1 | inconclusive: 50.1 µM [inhibitor, partial curve] | 
24 | CN1CCN(Cc2cccc(Oc3ccc(Cl)cc3)c2)CC1 | inconclusive: 89.1 µM [inhibitor, single point] | 
25 | COc1ccc(NC(=O)c2cc([N+](=O)[O-])ccc2N2CCCC2)cc1S(N)(=O)=O | inconclusive: 79.4 µM [inhibitor, single point] | 

Row | SMILES | Potency | activity, negative = inhibition
26 | COc1ccc(CC(=O)Nc2cc(-c3cn4cccnc4n3)ccc2OC)cc1 | inactive | 
27 | CC1CC(C)CN(C(=O)C(C)N(C)CC(=O)Nc2ccc(F)cc2)C1 (stereo not drawn) |  | inactive: 11% [at 12.7 µM]
28 | O=C(C(=O)N1CCCc2ccccc21)N1CCCc2ccccc21 | inactive | 
29 | Cc1cc2c(NS(=O)(=O)c3ccc(F)cc3)cccc2nn1 | inconclusive: 50.1 µM [inhibitor, partial curve] | 
30 | Cc1occc1-c1nnc(SCC(=O)NCCc2ccccc2)n1C(C)c1ccccc1 (stereo not drawn) | active: 56.2 µM | 
31 | O=C(OCC(=O)N1CCCc2ccccc21)c1ccc(S(=O)(=O)C(F)F)cc1 | active: 50.1 µM | 
32 | COc1ccc(C(=O)CC(=O)C(=O)Nc2cc([N+](=O)[O-])ccc2OC)cc1 | inactive | 
33 | COc1ccc2nc3oc(C(=O)N4CCN(c5cccc(C(F)(F)F)c5)CC4)cc3cc2c1 | inactive | 
34 | CN(C)c1ccc(NC(=O)CSc2nc3ccsc3c(=O)n2CCCCCC(=O)O)cc1 | inconclusive: 31.6 µM [inhibitor, partial curve, poor fit] | 
35 | COc1cc(OC)c(NC(=O)C(Cc2ccccc2)NS(=O)(=O)c2cccc3nsnc23)cc1Cl (stereo not drawn) | inactive | 
36 | Cc1c(C(=O)N(Cc2ccco2)Cc2ccccc2Cl)oc2ccc(F)cc12 | inactive | 
37 | COC(=O)c1cc2sccc2n1CC(=O)N(C)c1ccccc1 | inactive | 
38 | Cn1c(O)c(C=Nc2ccc(Br)cc2)sc1=O | inconclusive: 79.4 µM [inhibitor, partial curve, poor fit] | 
39 | COc1ccc(S(=O)(=O)Nc2ccc(O)c3ccccc23)cc1 |  | inconclusive: -128% [inhibitor]
40 | Cc1cc(C)c(NC(=O)C(=O)NCC(c2cccnc2)N2CCN(Cc3ccccc3)CC2)c(C)c1 (stereo not drawn) | inactive | 
41 | Cc1ccccc1-c1noc(-c2ccc(N3CCN(C)CC3)c([N+](=O)[O-])c2)n1 | inactive | 
42 | CCCCNC(=O)c1cnc2sc(N3CCCCCC3)nn2c1=O | inactive | 
43 | COc1ccc(C)cc1NC(=O)Nc1ccccc1OCc1cc(=O)n2ccccc2n1 | inactive | 
44 | CCOc1ccc2nc(C)cc(Nc3cccc([N+](=O)[O-])c3)c2c1 | inconclusive: 25.1 µM [inhibitor, single point] | 
45 | O=C(O)c1ccc2c(=O)n(-c3ccccc3F)c(=S)[nH]c2c1 | inconclusive: 28.2 µM [inhibitor, single point] | 
46 | CCCCCC(=O)Nc1cc(S(=O)(=O)N2CCOCC2)ccc1N1CCCCC1 | active: 50.1 µM | 
47 | Cc1ccc(NCc2ccccc2)cc1 | inconclusive: 8.91 µM [inhibitor, full curve] | 
48 | O=c1[nH]c(COc2ccc(Br)cc2Cl)nc2ccccc12 | inconclusive: 15.8 µM [inhibitor, partial curve, poor fit] | 
49 | COCCn1c(-c2ccc(OC)cc2)nc2oc3cc(OC)ccc3c(=O)c2c1=O |  | inactive: 2.49% [at 12.7 µM]
50 | COc1ccc(NC2=CC(c3cccc(OC)c3)N(c3ccc(OC)cc3)C2=O)cc1 (stereo not drawn) | inconclusive: 39.8 µM [inhibitor, single point] | 

Row | SMILES | Potency | activity, negative = inhibition
51 | COc1ccc(-c2nc(CN3CCC(C(=O)NC4CCCC4)CC3)c(C)o2)cc1OC | inactive | 
52 | CC(C)(C)C(=O)Nc1nc2c(s1)CN(Cc1ccccc1)CC2 | active: 17.8 µM | 
53 | O=C(c1ccccc1)N1CCC(c2nc3c(nnn3Cc3ccco3)c(=O)[nH]2)CC1 | inactive | 
54 | COc1ccc(C2C(=O)N(C3CCC(C)CC3)CC(=O)N2C2CCCC2)cc1OC (stereo not drawn) | inactive | 
55 | Cc1sc(NC(=O)CCCC(=O)O)c(C#N)c1C |  | inconclusive: -63.7% [inhibitor]
56 | COc1ccc(CC(=O)N(Cc2nc(-c3ccc(C)cc3)no2)C(C)C)cc1 | inactive | 
57 | O=C(CSc1nc2nccnc2c(=O)n1CCc1c[nH]c2ccccc12)Nc1ccc(F)cc1 | inactive | 
58 | COc1ccc(OCC(=O)Nc2nc3ccccc3[nH]2)cc1 | inconclusive: 89.1 µM [inhibitor, single point] | 
59 | CSc1nn(Cc2cccc(Cl)c2)c(N(C(C)=O)C(C)=O)c1S(=O)(=O)c1ccccc1 | inactive | 
60 | CCN1CCN(C(=O)c2ccc(Cl)c(S(=O)(=O)N3CCOCC3)c2)CC1 | inconclusive: 17.8 µM [inhibitor, partial curve, poor fit] | 
61 | COc1ccc(C2c3c(ncn(CCCN4CCOCC4)c3=N)Oc3ccc4ccccc4c32)cc1OC (stereo not drawn) | inconclusive: 70.8 µM [inhibitor, partial curve, poor fit] | 
62 | O=C1Nc2ccc(Br)cc2C1=Nc1ccc(-c2nnc3n2CCCCC3)cc1 | inconclusive: 7.94 µM [inhibitor, single point] | 
63 | Cc1cccc(NC(=S)N2CCN(S(=O)(=O)c3ccccc3)CC2)c1 | inconclusive: 25.1 µM [inhibitor, partial curve, poor fit] | 
64 | O=[N+]([O-])c1ccc2nc(SCc3cn4ccccc4n3)[nH]c2c1 | active: 10 µM | 
65 | O=C(O)c1ccc(NC2=C(N3CCOCC3)C(=O)c3ccccc3C2=O)cc1 | inconclusive: 8.91 µM [inhibitor, partial curve, poor fit] | 
66 | O=C(/C=C\c1ccco1)Nc1cc([N+](=O)[O-])ccc1F | inactive | 
67 | Cc1cccc(NS(=O)(=O)c2ccc(C)c(C(=O)NCC(c3cccs3)N(C)C)c2)c1 (stereo not drawn) | inconclusive: 89.1 µM [inhibitor, partial curve, poor fit] | 
68 | COc1cc2c(cc1OC)C(c1cc3cc(C)ccc3[nH]c1=O)N(C(=O)c1ccco1)CC2 (stereo not drawn) | inconclusive: 89.1 µM [inhibitor, single point] | 
69 | O=C(CSc1nnc(NC(=O)C2CC(=O)N(c3ccccc3)C2)s1)NCC1CCCO1 (stereo not drawn) | active: 39.8 µM | 
70 | COc1ccccc1CNC(=O)CCCNC(=O)Cn1cnc2sc(C)c(C)c2c1=O | inactive | 
71 | CC(C)C(=O)NC(=S)Nc1ccccc1C(=O)NC1CCCCC1 | active: 50.1 µM | 
72 | CCOc1ccc(CNC(=O)Cn2ccc3cc(S(=O)(=O)N4CCCCC4)ccc32)cc1 | inactive | 
73 | O=C(CSc1ccccc1Cl)c1ccco1 | inconclusive: 39.8 µM [inhibitor, single point] | 
